Results reported in PubChem BioAssay AID1461 (National Center for Advancing Translational Sciences (NCATS), 2008).
Where “and” joins values, the source holds several entries; their conditions need not be identical. Identical values can stand only once. In all, about 220,000 compounds went through this assay and about 2,300 (1%) were called active. This list was built around the results that the source calls inconclusive (neither active nor inactive); the mix of calls is not that of the screen. The call rests on the fitted dose curve; in most records, active means well fitted inhibition curve with a large enough effect; inconclusive means small, poorly fitted or top-dose-only effect, or effect the other way; inactive means no such curve, though single readings can be large or run the other way. Potencies of inconclusive entries are doubtful fits and often do not repeat.

Target: Neuropeptide S receptor (Homo sapiens) (UniProt Q6W5P4)
Sequence of UniProt Q6W5P4 (Q6W5P4 whole entry, looked up): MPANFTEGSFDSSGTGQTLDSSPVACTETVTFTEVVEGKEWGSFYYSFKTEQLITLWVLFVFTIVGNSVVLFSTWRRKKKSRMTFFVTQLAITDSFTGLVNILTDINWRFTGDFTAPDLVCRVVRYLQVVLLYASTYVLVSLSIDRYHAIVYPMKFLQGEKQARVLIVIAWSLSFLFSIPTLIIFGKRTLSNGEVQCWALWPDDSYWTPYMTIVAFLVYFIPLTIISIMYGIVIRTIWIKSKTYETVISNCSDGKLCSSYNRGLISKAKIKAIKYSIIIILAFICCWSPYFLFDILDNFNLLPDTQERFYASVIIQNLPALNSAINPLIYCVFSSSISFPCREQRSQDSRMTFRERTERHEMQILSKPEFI
Experiment: qHTS Assay for Antagonists of the Neuropeptide S Receptor: cAMP Signal Transduction; further: nearly all actives have a fitted effect of over 50% in size
Details: CHO-NPSR cells, cAMP TR-FRET, antagonist mode; series mostly up to 38.3 µM
Potency means the concentration at half of the fitted maximal effect; tags describe the fitted curve by direction and shape.

Row | SMILES | Potency
1 | O=C(CSc1nnc(C23CC4CC(CC(C4)C2)C3)o1)Nc1ccc(N2CCOCC2)c(Cl)c1 | inconclusive: 10 µM [inhibitor, single point]
2 | O=C1C(Cl)=C(NS(=O)(=O)c2ccc([N+](=O)[O-])cc2)C(=O)c2ccccc21 | inconclusive: 12.6 µM [inhibitor, single point]
3 | CCn1nccc1C(=O)Nc1cc(Cl)cc(Cl)c1 | inconclusive: 12.6 µM [activator, single point]
4 | CCCCCCOC1(c2ccccc2)OC(=O)c2ccccc21 (stereo not given) | inconclusive: 15.8 µM [inhibitor, partial curve]
5 | O=C(Nc1nnc(CCS(=O)(=O)c2ccc3ccccc3c2)s1)c1cccs1 | inconclusive: 25.1 µM [inhibitor, single point]
6 | Cc1ccc(C2(CCNCc3ccc(N(C)C)cc3)CCOC(C(C)C)C2)cc1 (stereo not given) | inconclusive: 10 µM [inhibitor, single point]
7 | CCc1cc2c(=O)c(-c3cnn(-c4ccccc4)c3)c(C)oc2c(CN2CCCCC2)c1O | inconclusive: 12.6 µM [inhibitor, single point]
8 | CC1(C)Cc2nc3oc4c(N5CCOCC5)ncnc4c3cc2CO1 | inactive
9 | O=C1NC(=S)S/C1=C1\Sc2ccccc2N1CCCS(=O)(=O)O | inactive
10 | Cc1ccc(C(=O)N/N=C\c2ccc(-c3ccc(Cl)c(Cl)c3)o2)cn1 | inconclusive: 10 µM [activator, single point]
11 | CCn1c(-c2cc(-c3cc(OC)ccc3OC)nc3ccccc23)n[nH]c1=S | inactive
12 | Cc1noc(C)c1CSc1nc2[nH]ncc2c(=O)n1-c1ccccc1 | inactive
13 | C#CCn1c(S(=O)(=O)Cc2ccc(C)cc2)nc(-c2ccccc2)c1-c1ccccc1 | inconclusive: 10 µM [inhibitor, partial curve]
14 | c1ccc2c(c1)ncn2CCC1CCCCC1 | inconclusive: 25.1 µM [inhibitor, single point]
15 | CCCCC1=CC2=C(c3ccco3)C(=O)C(C)(OC(=O)c3ccc(OC)cc3)C(=O)C2=CN1C1CCCCC1 (stereo not given) | active: 10 µM
16 | CC(Sc1nnc(-c2ccccc2)c(-c2ccccc2)n1)C(=O)N1CCc2ccccc21 (stereo not given) | inconclusive: 15.8 µM [inhibitor, single point]
17 | Cc1cccc(/C(N)=N/OC(=O)c2cccs2)c1 | inactive
18 | COc1ccc(OC)c(NC2=NC3(CCCC3)N=C(N)N2)c1 | inconclusive: 12.6 µM [inhibitor, partial curve]
19 | O=P(c1ccccc1)(c1ccccc1)c1nc(-c2ccc(Cl)cc2)oc1N1CCOCC1 | active: 10 µM
20 | Cc1ccc(C)c(-c2csc(N)c2C(=O)OC(C)C)c1 | inconclusive: 12.6 µM [inhibitor, single point]
21 | CCOC(=O)C(C)n1cnc2c(nnn2-c2ccc(OC)cc2)c1=O (stereo not given) | inconclusive: 31.6 µM [inhibitor, single point]
22 | Cc1ccc(NC2=C(N3CCOCC3)C(=O)c3ccccc3C2=O)cc1 | inactive
23 | S=c1[nH]nc(-c2cccc(Br)c2)o1 | inactive

Row | SMILES | Potency
24 | CC1CCC(C(C)C)C(OC(=O)Cn2c(-c3ccccc3)[n+](C)c3ccccc32)C1 (stereo not given) | inactive and inconclusive: 25.1 µM [inhibitor, single point]
25 | O=C(c1ccccc1)c1ccc(N2CCOCC2)c(NC(=O)c2ccco2)c1 | inconclusive: 10 µM [inhibitor, single point]
26 | COc1cc(/C=C2\SC(=Nc3ccccc3)N(CCc3c[nH]c4ccccc34)C2=O)ccc1OC(C)C(=O)O (stereo not given) | inconclusive: 10 µM [inhibitor, single point]
27 | O=C(Cn1sc2ccccc2c1=O)NC12CC3CC(CC(C3)C1)C2 | inconclusive: 25.1 µM [inhibitor, single point]
28 | CC(SCC(=O)NC(C)C1CC2CCC1C2)C(=O)O (stereo not given) | inactive
29 | COc1cc(NC(=O)Cn2nc(C(F)(F)F)c(Br)c2C)cc([N+](=O)[O-])c1 | inconclusive: 10 µM [inhibitor, single point]
30 | CCc1nc(N(CC)CC)c2oc3ccccc3c2n1 | inconclusive: 10 µM [inhibitor, single point]
31 | Cc1ccc(Cn2c(=O)c3c(nc4n3CCCN4Cc3ccccc3)n(C)c2=O)cc1 | inconclusive: 10 µM [inhibitor, single point]
32 | COc1cccc(NC(=O)Nc2cccn(Cc3ccc(C)cc3)c2=O)c1 | inactive
33 | Cc1ccc(OC(=O)c2oc3ccc(F)cc3c2C)c(C)c1 | inconclusive: 12.6 µM [inhibitor, single point]
34 | COc1cccc(/C=C(/C#N)c2ccc(Cl)cc2)c1OCc1cccc(C(=O)O)c1 | inconclusive: 10 µM [activator, partial curve]
35 | COc1ccc(CNc2cc(NCCCO)c([N+](=O)[O-])c3nonc23)cc1 | inactive
36 | Cc1cc(C)c2c(=O)n(-c3ccccc3)[nH]c2n1 | inconclusive: 15.8 µM [inhibitor, single point]
37 | COc1ccc(C(=O)c2ccc(Br)cc2)cc1 | inconclusive: 10 µM [inhibitor, partial curve]
38 | Cc1c(C(=O)N(C)Cc2ccccc2)oc2ccc(S(=O)(=O)N3CCCC3)cc12 | inconclusive: 10 µM [inhibitor, partial curve, poor fit]
39 | CCc1cc2c(=O)[nH]c(Cc3ccccc3)nc2s1 | inactive
40 | CCOC(=O)c1c(C)c(C(=O)NCc2ccc(OC)cc2)c(C)n1C | inactive
41 | NNC(=S)Nc1c(F)cc(F)cc1Br | inactive
42 | c1cc(CNc2ccc3c(c2)OCO3)ccn1 | inconclusive: 12.6 µM [inhibitor, single point]
43 | Cc1ccc(-n2cc(CN3CCN(C(=O)c4ncn[nH]4)CC3)c(-c3ccc(F)cc3)n2)cc1 | inconclusive: 25.1 µM [inhibitor, single point]
44 | O=C(c1ccccc1)c1coc2c1C(=O)c1ccccc1C2=O | inconclusive: 25.1 µM [inhibitor, single point]
45 | O=C1Nc2ccccc2C12Nc1ccccc1-c1nc3ccccc3n12 (stereo not given) | inconclusive: 25.1 µM [inhibitor, single point]
